Measurements published in ChEMBL document CHEMBL1201862, “PubChem BioAssay data set” (2004).
Several values for one entry are separate records, joined by “and”; a condition that tells them apart may be missing. Equal values may be shown once.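 Compound exposure: 48 hours, 5 concentrations, 96-well plates. Abbreviation: GI50, concentration required for 50% inhibition of growth.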 Activity calls are given as the source filed them. No stated cut-off is given here; in the data, active = GI50 up to about 1.1 µM and inactive = higher.

Each compound was assayed on NCI-H322M (assay: inhibition of tumour cell growth, NCI panel, 48 h).
For `COC(=O)C(Cc1ccc(OC)cc1O)NC(=O)OC(C)(C)C` (centres undefined), the GI50 was inactive: > 100 µM. `COC(=O)c1c(O)ccc2c1c1c(n2Cc2ccccn2)C(=O)c2ccccc2C1=O` was tested, and the GI50 was inactive: 36.6 µM. `C[C@H]1[C@H]2[C@H]3CC[C@@H]4[C@@]5(C)CC[C@H](O)C(C)(C)[C@@H]5CC[C@@]4(C)[C@]3(C)C[C@H](O)[C@@]2(C)C[C@H]2O[C@]21C` was tested, and the GI50 was inactive: 21.9 µM. For `Cc1cc(N(CCC#N)CCC#N)ccc1/C=C/C(=O)Nc1cccc(Cl)c1`, the GI50 was inactive: > 100 µM. With `O=C(Nc1nnc(S)[nH]1)C(=O)C1C(=O)Nc2ccccc2[S+]1[O-]` (centres undefined) the GI50 was inactive: > 100 µM. `COC(=O)C(Cc1nc2ccc(Cl)cc2nc1O)/C(=N/NC(N)=O)C(=O)Nc1ccc(Cl)cc1` (centres undefined) was tested, and the GI50 was inactive: > 100 µM. For `CC(=O)CC(=O)N(CCN(C(=O)CC(C)=O)c1ccccc1)c1ccccc1`, the GI50 was inactive: > 100 µM. In the case of `[O-]/[N+](=N\c1ccccc1CO)c1ccccc1CO`, the GI50 is reported as inactive: > 100 µM. For `C/N=C1\CC2c3cc(OC)c(OC)cc3CCN2C2=C1C(=O)CC(C)(C)C2` (centres undefined), the GI50 was inactive: > 100 µM. In the case of `COC(=O)C1OC(O[C@H]2CC[C@]3(C)[C@H]4CC=C5[C@@H]6CC(C)(C)CC[C@]6(C(=O)OC6OCC(O)C(O)C6OC6OC(C)C(OC7OCC(O)C(O)C7O)C(O)C6O)CC[C@@]5(C)[C@]4(C)CC[C@H]3C2(C)C)C(O)C(O)C1O` (some centres undefined), the GI50 is reported as inactive: 15.2 µM and inactive: 13.2 µM. For `CC1=C2C(=O)C3[C@@H](CCC4=CC(=O)CC[C@@]43C)C2CC[C@]12O[C@@H]1C[C@H](C)CN[C@H]1[C@H]2C` (some centres undefined), the GI50 was inactive: > 100 µM. `Cc1c2cc[n+](C)cc2c(COC2OC(CO)C(O)C2O)c2c3ccccc3n(C)c12` (centres undefined) was tested, and the GI50 was inactive: > 100 µM. For `Cc1ccc(/C=N\NC2c3cc(Cl)ccc3Nc3nc(O)nc(C)c32)cc1` (centres undefined), the GI50 was inactive: 75.2 µM. With `O=C(c1ccccc1)C(c1ccccc1)C1(O)C(=O)Nc2c(Cl)ccc(Cl)c21` (centres undefined) the GI50 was inactive: 26.5 µM. In the case of `COC(=O)C1=C(C(=O)OC)C(OO)(c2ccccc2)OC1=O` (centres undefined), the GI50 is reported as inactive: 61.1 µM. For `CC(C)NC(=O)OCc1c(CO)c2c(n1C)-c1ccccc1CC2`, the GI50 was inactive: 43.5 µM. In the case of `Brc1ccc(C[P+]2(c3ccccc3)CCCCC2)cc1.[O-][Cl+3]([O-])([O-])[O-]`, the GI50 is reported as inactive: > 100 µM. For `O=c1c2cccnc2ncn1CCN1CCCC1`, the GI50 was inactive: > 100 µM. `O=C1NC(N2CCCC(CO)C2)=N/C1=C\c1cccs1` (centres undefined) was tested, and the GI50 was inactive: > 100 µM. For `OCCC/N=C1N=C(Cl)/C(=C\c2ccccc2)N\1`, the GI50 was inactive: > 100 µM. In the case of `COc1ccc2nc3c(nc2c1)C(C)(C)C=C3c1ccc(Br)cc1`, the GI50 is reported as inactive: > 100 µM. In the case of `O=C(CCl)NC(Cc1ccc(F)cc1)C(=O)O` (centres undefined), the GI50 is reported as inactive: > 100 µM. For `CCC1C(NC(=O)OC)C(=O)N1[C@@H](C)c1ccccc1` (some centres undefined), the GI50 was inactive: > 100 µM. For `C[N+]1=C2[B-](C(C)(C)C)=[N+](C(C)(C)C)[B-]2(C(C)(C)C)[N+](C)=C2[B-](C(C)(C)C)=[N+](C(C)(C)C)[B-]21C(C)(C)C` (centres undefined), the GI50 was inactive: > 100 µM. `COc1cc2ccc(/C=C\[N+](=O)[O-])cc2cc1OC` was tested, and the GI50 was inactive: 13.1 µM. In the case of `O=c1oc2c3ccc4ccccc4c3n(CCN3CCCCC3)c2c2ccccc12`, the GI50 is reported as inactive: 41.5 µM. For `CSC(SC)=C1C(=O)NN=C1C`, the GI50 was inactive: > 100 µM. `CC(c1ccccc1)N1CC(C)(c2ccccc2)N(O)C(c2ccccc2)C1C` (centres undefined) was tested, and the GI50 was inactive: 24.8 µM. With `Nc1nc(N)c2c(n1)CCC(S(=O)(=O)c1ccc3ccccc3c1)C2` (centres undefined) the GI50 was inactive: 5.78 µM. With `CC(C)(C)NN=C1C(C)(C)C(=NNC(C)(C)C)C1(C)C` the GI50 was inactive: > 100 µM. For `S=C1SC(c2ccc(Cl)cc2)(c2ccc(Cl)cc2)c2ccccc21`, the GI50 was inactive: 77.6 µM. With `CC(O)C1(O)C(O)CC(OC2c3cc4c(c(O)c3[C@@H]3C[C@@]2(C)OC32C=c3cc[nH]c3=N2)C(=O)c2cccc(O)c2C4=O)OC1C` (some centres undefined) the GI50 was inactive: 2.05 µM. `CC(C)(C)OC(=O)N(CCCCNC(=O)c1ccccc1)CCCNC(=O)c1ccccc1` was tested, and the GI50 was inactive: > 100 µM. With `Cc1ccc(-n2nncc2[Si](C)(C)C)s1` the GI50 was inactive: > 100 µM. `COc1ccc(-c2c3c(n(C4OC(COC(C)=O)C(OC(C)=O)C(OC(C)=O)C4OC(C)=O)c(=S)c2C#N)CC(C)(C)CC3=O)cc1` (centres undefined) was tested, and the GI50 was inactive: > 100 µM. With `CNC(=O)c1ccccc1[S+]1c2cccc3cccc(c23)C(=O)N1C` (centres undefined) the GI50 was inactive: > 100 µM. With `Cc1[nH]n(-c2nc3c(c(=O)[nH]2)CCCC3)c(=O)c1CCO` the GI50 was inactive: > 100 µM. For `C1=C(CC2=C[P+](c3ccccc3)(c3ccccc3)C=C(c3ccccc3)O2)OC(c2ccccc2)=C[P+]1(c1ccccc1)c1ccccc1`, the GI50 was active: 0.538 µM. With `CC(CC[C@@H](C)C1CCC2[C@@H]3CC(O)C4CC(O)[C@@H](O)C[C@]4(C)C3CC[C@@]21C)C(C)(C)C` (some centres undefined) the GI50 was inactive: > 100 µM. `N[C@@H]1CCN(c2c(F)cc3c(=O)c(C(=O)O)cn4c3c2Oc2c-4ccc3c2ccc2ccccc23)C1` was tested, and the GI50 was active: 0.685 µM. In the case of `COc1cc2c(cc1OC(=O)c1cc3ccccc3[nH]1)N=C[C@@H]1CCCN1C2=O`, the GI50 is reported as inactive: 1.64 µM. In the case of `CN(C)Cc1cc(C(=O)/C=C/c2ccc(Cl)cc2)cc(CN(C)C)c1O`, the GI50 is reported as inactive: 13.6 µM. With `COc1cc(/C=C/c2ccncc2)cc(OC)c1OC` the GI50 was inactive: > 100 µM. In the case of `CSc1ccccc1P(CCP(c1ccccc1SC)c1ccccc1SC)c1ccccc1SC`, the GI50 is reported as inactive: 12.3 µM.
